Measurements published in the supplement of paper PMC11417369.
± gives the standard deviation of the averaged measurements. The list shows a part of the results.

Test system: PfAP2-LT AP2 domain (GST-tagged)
Test: gcPBM binding intensity (ln(normalized median fluorescence intensity)); higher = stronger DNA binding
Summary of the method: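 GST-tagged P. falciparum DNA-binding domains produced in E. coli were incubated for 1 h on an Agilent 4 × 180k array of primer-extended double-stranded 36-bp intergenic genomic probes with negative controls. Binding intensity is the highest Masliner-normalised natural-log median intensity across replicate spots of either probe orientation, with bound protein detected by Alexa488 anti-GST antibody at 488 nm.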

| Sequence | gcPBM binding intensity (ln) |
| --- | --- |
| ATATATATATATATTTGTACATATATACATAAAATT [XGTACX_site359] | 8.97 ± 0.26 |
| TATATATCATTTAAAACACACAAAAAAAAAAGTTAT [CACACA_site6191] | 8.78 ± 0.52 |
| ATAAATATAAAAAAATGTACATATAGTAATACATAC [XGTACX_site508] | 8.96 ± 0.5 |
| GACTTTTCATTTATAGTGCAAGTTTTTTTTTTTTTT [GTGCAC_site9698] | 8.69 ± 0.55 |
| ATAAGTATAAGAATCAGTACACAGTTTCTACATACT [XGTACX_site5834] | 8.84 ± 0.4 |
| GAAATAAAAAGAAATGCATGTAATTTTTTTTTTTTT [TGCATGCA_site928] | 8.65 ± 0.47 |
| TTGTATTTTTAAATGACACACACATATATATATATA [CACACA_site8481] | 9.47 ± 0.29 |
| AATAAATAAGCACATACACACATACATACATACATA [CACACA_site6075] | 9.54 ± 0.26 |
| AAGTTATAAAAATAAAGTACAAAGTAGCTATTTTTT [XGTACX_site3144] | 8.67 ± 0.54 |
| ATTAAAACCAATTAAAAAAAATTTATAATGGAAGCA [TGCATGCA_negctrl_site273] | 8.44 ± 0.41 |
| TATTATTGTTGTTCATGTACACACTATAATAAAAGC [XGTACX_site8957] | 8.8 ± 0.39 |
| AATGACTAAATTTAAACACACAAGGGGAGTTTACTT [CACACA_site918] | 8.83 ± 0.35 |
| GAGATAAAATAAAACACACACATATATATATATAAT [CACACA_site5246] | 9.59 ± 0.36 |
| ATATATGTATGTTAGACACACATATTATAATATGTT [CACACA_site116] | 9 ± 0.41 |
| AAAACGGATTCTTTATAAATAAATAAATAAATATAA [XGTACX_negctrl_site157] | 8.45 ± 0.51 |
| AATACATACACAAATACACACACAAATACATACACA [CACACA_site8134] | 9.9 ± 0.3 |
| TTTTTTTTTTTTTTTACACACAAATGTATACTATAT [CACACA_site1787] | 8.85 ± 0.42 |
| TATTAAATATTCATATGTACATATAGTTTATAAATT [XGTACX_site7455] | 8.53 ± 0.46 |
| TATAAATAAATGTGTACACACATTAAAATCAAACGT [CACACA_site2340] | 9.36 ± 0.35 |

| Sequence | gcPBM binding intensity (ln) |
| --- | --- |
| TTATGTGCTTTAAAAGTGCATTTTTTTTTTTTTTTT | 8.36 ± 0.33 |
| TATATGTTTTATAAATGTACATATACTTAAATATTT [XGTACX_site4753] | 8.54 ± 0.43 |
| TTTATCAAAAAAAAAAAAAAAAAAAAAAAAAATTGT [CACACA_negctrl_site176] | 8.38 ± 0.49 |
| TTATTTGTATCCATTTCACACATTTTATATAGTATC [CACACA_site5989] | 8.96 ± 0.43 |
| TTTTTTGTTATGCGGGTGCATATAATAATGTGATGA | 8.63 ± 0.4 |
| AATACATAATAACGTTGTACAAAAATTATAATACAT [XGTACX_site6508] | 9.18 ± 0.42 |
| ACTATTAAGAATAAAGAAATATGTAATTGTATTTAA [CACACA_negctrl_site516] | 8.41 ± 0.4 |
| ATTAAAAATTAATATAAACACACAAAAATTAATAAA [CACACA_site8019] | 8.76 ± 0.42 |
| TCCTCGCGTAATACTTTTCAAATAAAAAAAATAAAA [TGCATGCA_negctrl_site403] | 8.17 ± 0.44 |
| GTGTCAAATTTTATAACACACAAAAGATTATATAAG [CACACA_site4086] | 8.87 ± 0.43 |
| CCAATATATACATATATATAGTTATATATATTTCCT [TGCATGCA_negctrl_site38] | 8.77 ± 0.36 |
| TTTTTTTTTTTTTATTGTACTAGTAGATATATATAC [XGTACX_site3463] | 8.7 ± 0.45 |
| AAACATACTTGATGCAGTACACATTATAAGCACATA [XGTACX_site3359] | 8.93 ± 0.39 |
| ATATATGTATATGTGTGTACATATATGTTTATTATT [XGTACX_site6043] | 9.15 ± 0.29 |
| GGACTTAAATAAAATGGTACAGAATTTATATATATT [XGTACX_site8214] | 8.63 ± 0.47 |
| TAATGGAATACATATAGTACATAATATTACATACAT [XGTACX_site5737] | 8.88 ± 0.44 |
| AAACAAAAAAGTAAGAAAAGGGATGATTGGATCCAA [CACACA_negctrl_site1230] | 8.7 ± 0.64 |
| AGATATTATAATTAATGTACAAAAAGAAAAAATAGA [XGTACX_site8964] | 8.79 ± 0.39 |
| ATAAAAATACAGTTAACACACATGTGGATATATATG [CACACA_site3771] | 9.35 ± 0.49 |

| Sequence | gcPBM binding intensity (ln) |
| --- | --- |
| AACATAAAAATGAACATACACACATATATATATATA [CACACA_site2497] | 9.96 ± 0.33 |
| GTATATCATTTTGGGGTGCTTAAAAATAATGAATAC | 8.67 ± 0.35 |
| TATATAACATAATATACACACATTATGTGCGTAATT [CACACA_site4073] | 8.99 ± 0.34 |
| TTTTTTTTTTTTTATTGTACAAAGGTATAAAATAAT [XGTACX_site2396] | 8.23 ± 0.37 |
| TATTATTCTGTATTTGCATGTGATCATATATATGTA [TGCATGCA_site1053] | 8.98 ± 0.37 |
| CATATGTATATGACTACACACAAGGGTGTACAGATA [CACACA_site4776] | 9.1 ± 0.38 |
| TTTTTAATTTATTAAGAAGTAAAGAATAACTCTTTT [TGCATGCA_negctrl_site101] | 7.9 ± 0.38 |
| AAACATTAAAATAACTCACACATTTTTCTAGTCTTC [CACACA_site4612] | 8.82 ± 0.37 |
| ATATATTTAATATTCACACATAATTATTTTTACTCT [CACACA_site5438] | 8.79 ± 0.46 |
| ATATAATGATAATATTGTACATGTTATATTTCAATA [XGTACX_site8645] | 8.66 ± 0.4 |
| TATAGATAAGAATATGCACACATTTTATTTTTTTTT [CACACA_site1982] | 8.8 ± 0.46 |
| TTGTAATATCTTGTCACACATATATATATATATATA [CACACA_site4937] | 9.53 ± 0.18 |
| AGTTTTCCATGTTAATGTACTTAACAATACCATAAT [XGTACX_site209] | 8.77 ± 0.35 |
| ATTTATTCATAGACAACAAGAAAAAAAAAAAAAATT [CACACA_negctrl_site1168] | 8.5 ± 0.47 |
| TATATCCATATTGTATGTACACATATAATACCAATG [XGTACX_site7230] | 8.84 ± 0.4 |
| GTATTATCTTTTAATAGTACATATTTTTTTGAAACA [XGTACX_site4050] | 8.32 ± 0.45 |
| AATATATTTTTATATTGTACAAAAGAAAAAAAATAT [XGTACX_site1689] | 8.58 ± 0.52 |
| CATATAATATTTGAAACTATATATAAATATAAGGTA [TGCATGCA_negctrl_site19] | 8.63 ± 0.45 |
| GAACTTTACAACCCAACACACAAAAAAGAAAAGAAA [CACACA_site1717] | 9.02 ± 0.49 |
